Article PMC4336329 (PLoS ONE, 2015)
Screen size: about 310,000 compounds; about 2,200 (0.71%) showed an effect of 50% or more. Effects have a minus sign here. This is one part of the list.

What follows are compounds tested against human ether-à-go-go-related gene (hERG) potassium channel (human, UniProt Q12809) (assay: primary screen, population patch clamp on CHO cells stably expressing hERG).
Chain of human ether-à-go-go-related gene (hERG) potassium channel (Q12809 whole entry, looked up): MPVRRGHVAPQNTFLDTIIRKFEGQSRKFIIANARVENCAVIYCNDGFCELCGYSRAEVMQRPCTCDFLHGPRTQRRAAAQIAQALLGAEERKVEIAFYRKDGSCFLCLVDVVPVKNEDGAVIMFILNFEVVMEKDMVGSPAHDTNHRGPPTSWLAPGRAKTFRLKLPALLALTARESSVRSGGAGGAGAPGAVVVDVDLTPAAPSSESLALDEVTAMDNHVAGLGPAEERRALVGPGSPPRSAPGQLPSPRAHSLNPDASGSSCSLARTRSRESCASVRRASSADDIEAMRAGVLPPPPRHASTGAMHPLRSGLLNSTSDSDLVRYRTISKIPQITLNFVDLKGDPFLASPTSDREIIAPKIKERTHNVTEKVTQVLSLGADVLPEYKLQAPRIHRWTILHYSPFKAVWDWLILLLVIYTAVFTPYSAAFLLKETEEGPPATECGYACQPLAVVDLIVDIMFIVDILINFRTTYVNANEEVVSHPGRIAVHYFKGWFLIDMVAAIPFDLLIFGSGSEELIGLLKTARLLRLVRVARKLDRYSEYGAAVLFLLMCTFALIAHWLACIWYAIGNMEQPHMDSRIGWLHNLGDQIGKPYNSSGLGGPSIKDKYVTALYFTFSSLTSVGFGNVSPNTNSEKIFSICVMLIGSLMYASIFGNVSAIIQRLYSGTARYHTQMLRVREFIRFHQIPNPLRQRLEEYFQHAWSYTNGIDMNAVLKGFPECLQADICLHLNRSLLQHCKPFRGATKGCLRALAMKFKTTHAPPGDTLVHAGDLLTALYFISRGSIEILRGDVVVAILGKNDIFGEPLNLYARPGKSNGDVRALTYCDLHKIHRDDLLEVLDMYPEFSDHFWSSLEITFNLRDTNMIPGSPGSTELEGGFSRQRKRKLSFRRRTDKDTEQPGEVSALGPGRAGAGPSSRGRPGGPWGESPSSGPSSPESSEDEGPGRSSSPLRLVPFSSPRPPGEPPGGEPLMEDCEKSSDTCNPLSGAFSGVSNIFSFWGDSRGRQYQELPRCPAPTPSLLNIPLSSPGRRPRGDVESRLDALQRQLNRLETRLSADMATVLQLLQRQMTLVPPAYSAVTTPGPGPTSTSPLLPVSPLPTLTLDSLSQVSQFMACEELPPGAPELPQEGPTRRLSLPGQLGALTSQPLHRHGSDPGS

SMILES	hERG current change (%, negative = inhibition) at 1uM [%]
NC(=O)COc1ccc(C2c3c(oc4ccccc4c3=O)C(=O)N2CC2CCCO2)cc1 (centres unmarked)	-5.51
COc1ccc(/C=C2\SC(=S)N(CC(=O)NNC(=O)c3ccncc3)C2=O)cc1	11
CC1=C(/C=C/C(=O)O)C(C)(C)CCC1	13.7
COc1ccc(-c2nc(C)c(C(C)=O)n2O)cc1[N+](=O)[O-]	10.5
COCCN1C(=O)N[C@@H](c2ccc(Br)cc2)C(C(=O)OC)=C1C	-19.2
[O-]/[N+](=C/c1ccc(F)cc1)c1ccccc1	6.23
CCOC(=O)c1c(C)[nH]c(C(=O)OCC(=O)N(C)c2c(N)n(Cc3ccccc3)c(=O)[nH]c2=O)c1C	8
COc1ccccc1NC(=O)CSc1nnc(-c2ccoc2C)n1C	11.4
CCOc1ccccc1N1CCN(c2ncnc3scc(-c4ccc(OC)cc4)c23)CC1	8.7
CSc1nc2ccccc2n1CC(=O)N1CCCCC1	2.94
CCC(NS(=O)(=O)c1ccc2c(c1)NC(=O)C(C)C(=O)N2)c1cccs1 (centres unmarked)	10.6
Cc1ccc(NC2=NCCCCC2)cc1.Cl	15.6
Cc1ccccc1NS(=O)(=O)c1cc2c(cc1C)N(C)CCO2	13
c1ccc(Cc2noc(CN3CCN(CCOc4ccccc4)CC3)n2)cc1	0.485
CC(C)c1nnc(NC(=O)c2ccc(N3C(=O)CCC3=O)cc2)s1	8.95
CCCNC(=O)C1CCC(CNS(=O)(=O)c2ccc3c(c2)N(C(C)=O)CCO3)CC1 (centres unmarked)	12.7
Cc1c(C)c(C)c2[nH]c(-c3ccc4c(c3)OCO4)nc2c1C	16.8
COc1ccc(CNC(=S)NC2CCCC2)cc1	9.23
O=C(O)C1=C[C@H](c2csc3ccccc23)C[C@H](OCc2ccc(CO)cc2)O1	13.7
CCCCC(C(=O)OCC)C(N)Cc1ccc(F)cc1.Cl (centres unmarked)	15.1
CC(C)CCNC(=O)C1c2ccccc2Oc2ccccc21	-12.1
CCc1n[nH]c2c1/C(=N\O)CC(C)(C)C2	13.9

SMILES	hERG current change (%, negative = inhibition) at 1uM [%]
CCn1nc(C)c(/C=N/NC(=O)c2ccc3c(c2)c(C)c(C)n3Cc2ccccc2)c1C	6.88
COc1cc(CNc2ccc(CNc3ncn[nH]3)cc2)ccc1OCC(=O)NC(C)(C)C	9.9
CC(=O)Cc1nsc(NC(=O)c2cn(-c3ccccc3)nc2-c2ccc(Br)cc2)n1	9.97
CCOc1ccc(N(C(=O)CNC(=O)c2ccco2)C(C(=O)NCC2CCCO2)c2ccccc2)cc1 (centres unmarked)	15
CCCCOc1ccccc1NC(=O)C=C(C)C	7.26
COC(=O)C1=C(Nc2ccccc2NS(=O)(=O)c2ccc(C(F)(F)F)cc2Cl)CSC1	11.4
COc1cc(C(=S)N2CCOCC2)cc(OC)c1OC(=O)Cc1ccc(F)cc1	12.6
CCOC(=O)C1(CCCc2ccccc2)CCN(Cc2cnn(C)c2)CC1	-46.4
Cc1csc(NC(=O)CCNC(=O)c2ccccc2Cl)n1	14.8
O=[N+]([O-])c1ccc2c(c1)nc1n2CCCCC1	4.91
CC(=O)Nc1ccc(-c2ccccc2)s1	17.2
CN1CCC(CN)(N2CCN(c3ccccc3)CC2)CC1	11.4
O=C(NCCc1nnc2ccc(SCC(=O)N3CCCC3)nn12)c1ccc(F)cc1	7.7
COc1cccc(C2=CC(=O)CCC2)c1	6.48
CN(C)/C=C1/C(=O)NC(=O)N(CCNc2ncc(C(F)(F)F)cc2Cl)C1=O	15.2
O=C(CCC(=O)N(CC(=O)NC1CCCCC1)Cc1cccs1)Nc1nccs1	11
Cn1cc(-c2ccc(Cl)cc2)cc(C#N)c1=O	10.2
CC(C)=CCN1CCN(CC#Cc2ccccc2)CC1CCO (centres unmarked)	4.36
Cc1ccc(NC(=O)C(C)OC(=O)Cn2[nH]c(=O)c3ccccc3c2=O)cc1 (centres unmarked)	14.4
COc1cc(OC)c(OC)cc1CN1CCN(S(=O)(=O)c2ccc(NC(C)=O)cc2)CC1.O=C(O)C(=O)O	13.6
O=C(Nc1ccc2c(c1)CCC2)c1cnc(Cl)c(Cl)c1	2.47
CCn1cc(C(=O)O)c(=O)c2cnc(N3CCN(C(=S)Nc4ccccc4C(F)(F)F)CC3)nc21	10.5
